# Source: the supplement of paper PMC4604168 (melanoma cell lines)
# The other results are listed elsewhere or left out. Many values rest on one well or one pass, so single values are uncertain.
# Test system: COLO792
# Assay: cell count relative to DMSO control; melanoma cells; higher = more viable cells
# Details: library dose: standard library concentration; 72 h
# 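Note: cells treated in 1,536-well plates, then fixed and DAPI-stained, with nuclei counted from automated high-throughput microscope images.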
row,SMILES,cell count [%]
1,"CCCCCCCCc1ccc(CCC(N)(CO)CO)cc1 [fingolimod] + COC(=O)c1sccc1S(=O)(=O)Nc1ccc(Nc2ccccc2)cc1OC [GSK0660] (first compound 10 µM, partner dose 5 µM)",3.12
2,"CCCCCCCCc1ccc(CCC(N)(CO)CO)cc1 [fingolimod] + CCCCCCCCCCCC1=C(O)C(=O)C=C(O)C1=O [Embelin] (first compound 10 µM, partner dose 6 µM)",22.5
3,"NC(=O)c1ccc(N(C(N)=O)c2c(F)cccc2F)nc1-c1ccc(F)cc1F + CN1CCN(c2ccc3nc(-c4c(N)c5c(F)cccc5[nH]c4=O)[nH]c3c2)CC1 [Dovitinib] (first compound 2 µM, partner dose 0.5 µM)",36.8
4,"CC(C)(C)c1cnc(CSc2cnc(NC(=O)C3CCNCC3)s2)o1 + NCC(=O)Nc1ccc(-n2nc(C(F)(F)F)cc2-c2ccc3c(ccc4ccccc43)c2)cc1 [OSU03012] (first compound 0.05 µM, partner dose 5 µM)",67.2
5,"CCCCCCCCc1ccc(CCC(N)(CO)CO)cc1 [fingolimod] + NC1(c2ccc(-c3nc4ccn5c(=O)[nH]nc5c4cc3-c3ccccc3)cc2)CCC1 [MK2206] (first compound 10 µM, partner dose 2 µM)",3.12
6,"CC(C)(C)c1cnc(CSc2cnc(NC(=O)C3CCNCC3)s2)o1 + Oc1cc(-c2nc(-c3ccccc3)[nH]c2-c2ccncc2)ccc1Cl [L779450] (first compound 0.05 µM, partner dose 1 µM)",91.2
7,"CCc1ccc(CCOc2ccc(CC3SC(=O)NC3=O)cc2)nc1 (stereo not given) [pioglitazone] + Oc1nc(-c2ccc(C(F)(F)F)cc2)nc2c1CSCC2 [XAV939] (first compound 10 µM, partner dose 10 µM)",85.6
8,"COc1cc2c(Oc3ccc4[nH]c(C)cc4c3F)ncnc2cc1OCCCN1CCCC1 [cediranib] + Cn1cc(/C=C2\C(=O)Nc3cccnc32)c2ccccc21 [GW441756] (first compound 2 µM, partner dose 2 µM)",71
9,"CCCCCCCCc1ccc(CCC(N)(CO)CO)cc1 [fingolimod] + Cn1cncc1[C@@](N)(c1ccc(Cl)cc1)c1ccc2c(c1)c(-c1cccc(Cl)c1)cc(=O)n2C [tipifarnib] (first compound 10 µM, partner dose 0.05 µM)",3.04
10,"CCc1ccc(CCOc2ccc(CC3SC(=O)NC3=O)cc2)nc1 (stereo not given) [pioglitazone] + Cc1cc([N+](=O)[O-])ccc1NS(=O)(=O)c1cc(Cl)ccc1Cl [FH535] (first compound 10 µM, partner dose 5 µM)",58
11,"CCCCCCCCc1ccc(CCC(N)(CO)CO)cc1 [fingolimod] + COCC[n+]1c2c(n(Cc3cnccn3)c1C)C(=O)c1ccccc1C2=O [YM155] (first compound 10 µM, partner dose 0.002 µM)",1.66
12,"NC(=O)c1ccc(N(C(N)=O)c2c(F)cccc2F)nc1-c1ccc(F)cc1F + O=C1NC(=O)/C(=C/c2ccc(-c3ccc(F)cc3O)o2)S1 [AS252424] (first compound 2 µM, partner dose 5 µM)",80.9
13,"NC(=O)c1ccc(N(C(N)=O)c2c(F)cccc2F)nc1-c1ccc(F)cc1F + Cc1nc(Nc2ncc(C(=O)Nc3c(C)cccc3Cl)s2)cc(N2CCN(CCO)CC2)n1 [dasatanib] (first compound 2 µM, partner dose 0.02 µM)",46.1
14,"CC(C)(C)c1cnc(CSc2cnc(NC(=O)C3CCNCC3)s2)o1 + COc1cc2c(Oc3ccc4[nH]c(C)cc4c3F)ncnc2cc1OCCCN1CCCC1 [cediranib] (first compound 0.05 µM, partner dose 2 µM)",66.9
15,"Cc1ccc(NC(=O)c2cccc(N(C)C)c2)cc1NC(=O)c1ccc(O)cc1 + CO[C@@H]1[C@H](N(C)C(=O)c2ccccc2)C[C@H]2O[C@]1(C)n1c3ccccc3c3c4c(c5c6ccccc6n2c5c31)C(=O)NC4 [Midostaurin] (first compound 10 µM, partner dose 0.4 µM)",53.2
16,"CCCCCCCCc1ccc(CCC(N)(CO)CO)cc1 [fingolimod] + Oc1nc(-c2ccc(C(F)(F)F)cc2)nc2c1CSCC2 [XAV939] (first compound 10 µM, partner dose 10 µM)",44.3
17,"Cc1ccc(NC(=O)c2cccc(N(C)C)c2)cc1NC(=O)c1ccc(O)cc1 + CN(NC(=O)CC(=O)NN(C)C(=S)c1ccccc1)C(=S)c1ccccc1 [STA4783] (first compound 10 µM, partner dose 0.03 µM)",17.2

# Test system: COLO800
# Assay: as above
# Details: library dose: standard library concentration; 72 h
row,SMILES,cell count [%]
1,"CCCCCCCCc1ccc(CCC(N)(CO)CO)cc1 [fingolimod] + Cc1cc([N+](=O)[O-])ccc1NS(=O)(=O)c1cc(Cl)ccc1Cl [FH535] (first compound 10 µM, partner dose 5 µM)",64.2
2,"CN(NC(=O)CC(=O)NN(C)C(=S)c1ccccc1)C(=S)c1ccccc1 + COc1cc2c(Oc3ccc4[nH]c(C)cc4c3F)ncnc2cc1OCCCN1CCCC1 [cediranib] (first compound 0.03 µM, partner dose 2 µM)",15.1
3,"CCc1ccc(CCOc2ccc(CC3SC(=O)NC3=O)cc2)nc1 (stereo not given) [pioglitazone] + O=C1NC(=O)/C(=C/c2ccc(-c3ccc(F)cc3O)o2)S1 [AS252424] (first compound 10 µM, partner dose 5 µM)",73.3
4,"Cc1ccc(NC(=O)c2cccc(N(C)C)c2)cc1NC(=O)c1ccc(O)cc1 + CCCCCCCCCCCC1=C(O)C(=O)C=C(O)C1=O [Embelin] (first compound 10 µM, partner dose 6 µM)",99.5
5,"Cc1ccc(NC(=O)c2cccc(N(C)C)c2)cc1NC(=O)c1ccc(O)cc1 + COc1ccc2c(c1)CCC1C2CCC2(C)C(NCCCCCCN3C(=O)C=CC3=O)CCC12 [U73122] (first compound 10 µM, partner dose 2 µM)",83.9
6,"CC(C)(C)c1cnc(CSc2cnc(NC(=O)C3CCNCC3)s2)o1 + CN(NC(=O)CC(=O)NN(C)C(=S)c1ccccc1)C(=S)c1ccccc1 [STA4783] (first compound 0.05 µM, partner dose 0.03 µM)",10.3
7,"CN(NC(=O)CC(=O)NN(C)C(=S)c1ccccc1)C(=S)c1ccccc1 + COc1cc(N2CCC(N3CCN(C)CC3)CC2)ccc1Nc1ncc(Cl)c(Nc2ccccc2S(=O)(=O)C(C)C)n1 [NVP-TAE684] (first compound 0.03 µM, partner dose 0.4 µM)",22.2
8,"CN(NC(=O)CC(=O)NN(C)C(=S)c1ccccc1)C(=S)c1ccccc1 + CCCCCCCCCCCC1=C(O)C(=O)C=C(O)C1=O [Embelin] (first compound 0.03 µM, partner dose 6 µM)",25.8
9,"CC(C)(C)c1cnc(CSc2cnc(NC(=O)C3CCNCC3)s2)o1 + O=C(Nc1ccccc1)c1cc([N+](=O)[O-])ccc1Cl [GW9662] (first compound 0.05 µM, partner dose 10 µM)",40
10,"CCCCCCCCc1ccc(CCC(N)(CO)CO)cc1 [fingolimod] + CCCS(=O)(=O)Nc1ccc(F)c(C(=O)c2c[nH]c3ncc(Cl)cc23)c1F [PLX4720] (first compound 10 µM, partner dose 0.4 µM)",12.2
11,"CCCCCCCCc1ccc(CCC(N)(CO)CO)cc1 [fingolimod] + O=C(O)C(=O)Nc1sc2c(c1C(=O)O)CCNC2 [TCS401] (first compound 10 µM, partner dose 8.33333 µM)",8.94
12,"CCc1ccc(CCOc2ccc(CC3SC(=O)NC3=O)cc2)nc1 (stereo not given) [pioglitazone] + COC(=O)c1sccc1S(=O)(=O)Nc1ccc(Nc2ccccc2)cc1OC [GSK0660] (first compound 10 µM, partner dose 5 µM)",84.7
13,"COc1cc2c(Oc3ccc4[nH]c(C)cc4c3F)ncnc2cc1OCCCN1CCCC1 [cediranib] + COc1cc(N2CCC(N3CCN(C)CC3)CC2)ccc1Nc1ncc(Cl)c(Nc2ccccc2S(=O)(=O)C(C)C)n1 [NVP-TAE684] (first compound 2 µM, partner dose 0.4 µM)",36
14,"CC(C)(C)c1cnc(CSc2cnc(NC(=O)C3CCNCC3)s2)o1 + CCCCCCCCCCCC1=C(O)C(=O)C=C(O)C1=O [Embelin] (first compound 0.05 µM, partner dose 6 µM)",82.9
15,"CCCCCCCCc1ccc(CCC(N)(CO)CO)cc1 [fingolimod] + CN1CCN(c2ccc3nc(-c4c(N)c5c(F)cccc5[nH]c4=O)[nH]c3c2)CC1 [Dovitinib] (first compound 10 µM, partner dose 0.5 µM)",6.73
16,"CCCCCCCCc1ccc(CCC(N)(CO)CO)cc1 [fingolimod] + COc1ccc2c(c1)CCC1C2CCC2(C)C(NCCCCCCN3C(=O)C=CC3=O)CCC12 [U73122] (first compound 10 µM, partner dose 2 µM)",20.9
17,"Cc1ccc(NC(=O)c2cccc(N(C)C)c2)cc1NC(=O)c1ccc(O)cc1 + Cc1cc(N2CCOCC2)cc2[nH]c(-c3c(NC[C@@H](O)c4cccc(Cl)c4)cc[nH]c3=O)nc12 [BMS536924] (first compound 10 µM, partner dose 1 µM)",55.1
18,"NC(=O)c1ccc(N(C(N)=O)c2c(F)cccc2F)nc1-c1ccc(F)cc1F + CCCCCCCCCCCC1=C(O)C(=O)C=C(O)C1=O [Embelin] (first compound 2 µM, partner dose 6 µM)",137
